# PubChem BioAssay AID894 (National Center for Advancing Translational Sciences (NCATS), 2007)
# Hit rate of the full screen: of about 150,000 compounds, about 6,500 (4.3%) were called active. The inconclusive results got no clear call from the source; some entries with a clear call stand among them for comparison. Calls follow the shape of the dose curve; as a rule, active = well fitted inhibition curve with a large enough effect (not every such curve was filed as active); inconclusive = small, poorly fitted or top-dose-only effect, or another doubt; inactive = no such curve, though single readings can be large or run the other way. Potencies of inconclusive entries are left out as doubtful fits.
# Biological target: 15-hydroxyprostaglandin dehydrogenase [NAD(+)] (Homo sapiens) (UniProt P15428)
# Chain of UniProt P15428 (P15428 whole entry, looked up): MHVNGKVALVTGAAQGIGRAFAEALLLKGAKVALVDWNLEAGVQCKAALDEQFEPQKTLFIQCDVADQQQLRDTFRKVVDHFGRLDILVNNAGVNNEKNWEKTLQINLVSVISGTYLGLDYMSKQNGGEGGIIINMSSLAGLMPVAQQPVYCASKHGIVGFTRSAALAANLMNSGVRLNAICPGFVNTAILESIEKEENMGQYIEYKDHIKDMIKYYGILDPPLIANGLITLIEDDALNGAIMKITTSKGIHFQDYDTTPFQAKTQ
# Assay: qHTS Assay for Inhibitors of HPGD (15-Hydroxyprostaglandin Dehydrogenase)
# Settings: purified HPGD, NADH fluorescence kinetic, PGE2 substrate; activity change, negative = inhibition: stronger effect = lower value
# Outline: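 NADH formation kinetics: reaction with 30 uM PGE2 and 1 mM NAD+ (final), 20 nM enzyme, Tris-HCl pH 8 with Tween 20, after 15 min compound preincubation at room temperature. Fluorescence change, last versus first of five reads.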
# % is scaled to controls: 0 for no effect and ±100 for the full control effect; potency is read from the fitted curve at half-maximal effect; tags tell the direction and shape of the fitted curve.
Structure (SMILES),Potency,"activity change, negative = inhibition"
FC(F)(F)c1cnc(Sc2nc3nccc(-c4ccc(Cl)cc4)n3n2)c(Cl)c1,"inconclusive [inhibitor, partial curve]",
Oc1cccc(/C=N/c2c(-c3ccco3)nc3ccccn23)c1,"inconclusive [inhibitor, partial curve]",
COCCCn1c(CCC(=O)O)ccc1-c1cccs1,"inconclusive [inhibitor, partial curve]",
CCCn1c(=O)c(C)cn2nc(N)nc12,"inconclusive [inhibitor, partial curve]",
COc1ccc2c(c1)C(NC(C)=O)C(=O)N2C (configuration not stated),,inactive: 1.78%
CC(C)(C)NC(=O)Cn1c(=O)c(=O)n(Cc2ccccc2)c2ccc(Cl)cc21,"inconclusive [inhibitor, partial curve]",
Cc1nn(-c2ccccc2)c(C)c1C(=O)NCc1cccs1,"inconclusive [inhibitor, partial curve]",
COc1ccc(Nc2nc(-c3sc(N)nc3C)cs2)cc1,,inactive: -23%
COC(=O)c1cc(Cl)c(NC(=O)c2cc(OC)c(OC)c(OC)c2)cc1OC,"inconclusive [inhibitor, single point]",
CCOC(=O)Cc1csc(/N=C/c2c(O)n(-c3ccc(C)c(C)c3)c(=O)c3ccccc23)n1,"inconclusive [inhibitor, partial curve]",
O=C(O)CCc1ccc(-c2cccs2)n1Cc1ccco1,"inconclusive [inhibitor, single point]",
N[C@@H](Cc1ccccc1)c1nnc(SCc2ccccc2Cl)o1,active: 28.2 µM,
CCN1CCN(c2cc(C(C)(C)C)nc3c(-c4ccccc4)c(C)nn23)CC1,"inconclusive [inhibitor, partial curve]",
CSc1ccc(/C=N\NC(=O)COc2ccc(Cl)cc2Br)cc1,"inconclusive [inhibitor, partial curve]",
O=c1cc(-c2ccccc2)oc2ccccc12,active: 8.91 µM,
CCCCCCSC1=C(C#N)C(c2ccc(C)o2)CC(=O)N1 (configuration not stated),active: 31.6 µM,
C/C=C\c1ccc(OC)cc1,,inactive: -0.395%
Cc1c(C(=O)Nc2ccc(F)cc2)oc2ccc(S(=O)(=O)N3CCC4(CC3)OCCO4)cc12,"inconclusive [inhibitor, single point]",
CN(CCCNS(=O)(=O)c1cccc2cccnc12)Cc1ccccc1,,inactive: -11.5%
CCOc1ccc2oc(C(=O)OCC(=O)NC(=O)NC3CCCC3)c(C)c2c1,"inconclusive [inhibitor, partial curve, poor fit]",
O=C(CO/N=C/c1cccc([N+](=O)[O-])c1)NC1CCCCC1,"inconclusive [inhibitor, single point]",
COc1ccc(-c2nnc(Nc3nc4c(OC)cccc4s3)o2)cc1,"inconclusive [inhibitor, partial curve]",
COc1cc(-c2nnc(-c3ccc(N4CCOCC4)cc3)o2)cc(OC)c1OC,"inconclusive [inhibitor, partial curve]",

Structure (SMILES),Potency,"activity change, negative = inhibition"
CCCCCCCCCCCCCCCC(=O)N[C@@H](COP(=O)(O)O)C(=O)O,"inconclusive [inhibitor, single point]",
CN1CCN(c2ncc3nc(-c4ccccc4)c(=O)n(CCC#N)c3n2)CC1,"inconclusive [inhibitor, partial curve]",
Cn1ncc(Cl)c1C(=O)NCc1cc(C(C)(C)C)n[nH]1,active: 17.8 µM,
NC(=O)c1sc2nc(-c3ccco3)ccc2c1N,"inconclusive [inhibitor, partial curve]",
CCn1c2ccccc2c2cc(/C=N/NC(=O)c3ccc(O)cc3)ccc21,"inconclusive [inhibitor, partial curve]",
COc1cc2c(cc1OC)CN(C(=O)CCCOc1ccc(Cl)cc1Cl)CC2,active: 35.5 µM,
Cc1cccn2c(/C=N/OCc3ccc(F)cc3)c(-c3ccc(Cl)cc3)nc12,"inconclusive [inhibitor, partial curve]",
CCn1cc(C2C(C(=O)Nc3cc(C)ccn3)=C(C)NC3=C2C(=O)CC(C)(C)C3)c(C)n1 (configuration not stated),"inconclusive [inhibitor, partial curve]",
N#Cc1nc(-c2cccs2)oc1NCc1ccco1,"inconclusive [inhibitor, partial curve]",
Clc1cc(Cl)cc(Cl)c1,,inactive: 0.899%
O=C(NCCc1nc2ccccc2[nH]1)/C(=C/c1ccc2c(c1)OCO2)NC(=O)c1ccccc1Cl,,inactive: -14.9%
COc1ccc2cc1Oc1ccc(cc1)C[C@@H]1c3c(cc(OC)c4c3Oc3cc5c(cc3O4)CCN[C@H]5C2)CCN1C,,inactive: -1.17%
NS(=O)(=O)c1ccc(CCNC(=S)Nc2ccc(S(N)(=O)=O)cc2)cc1,"inconclusive [inhibitor, single point]",
C=CCC(CC=C)(NC(=O)c1ccccc1C(=O)O)c1ccccc1,,inactive: -6.69%
CS(=O)(=O)N(CC(=O)N/N=C/c1cc2c(cc1Br)OCO2)c1ccccc1Br,"inconclusive [inhibitor, partial curve]",
Cc1ccc(/C=N/NC(=O)c2ccc(C(=O)N/N=C/c3ccc(C)s3)o2)s1,"inconclusive [inhibitor, partial curve]",
O=C(Nc1ccn(Cc2ccccc2F)n1)c1ccc(COc2ccc(Br)cc2)cc1,"inconclusive [inhibitor, partial curve]",
O=[N+]([O-])c1cccc(/C=N/n2c(COc3ccccc3)n[nH]c2=S)c1,active: 3.98 µM,
CC(=O)c1c(N2CCOCC2)nc(=O)n(-c2ccccc2)c1C,,inactive: -7.97%
COc1ccc(CCN2CC(O)=C(c3nc4ccccc4c(=O)[nH]3)C2=N)cc1OC,"inconclusive [inhibitor, partial curve]",
COc1ccc(C2C3=C(CC(C)(C)CC3=O)Nc3cc4c(cc32)OCO4)cc1 (configuration not stated),"inconclusive [inhibitor, single point]",
O=C(c1cc2nc(-c3cccs3)cc(C(F)(F)Cl)n2n1)N1CCCc2ccccc21,"inconclusive [inhibitor, partial curve]",
Cc1nnc(SCC(=O)N2CCc3ccccc32)s1,,inactive: -10.4%

Structure (SMILES),Potency,"activity change, negative = inhibition"
COc1ccc(-n2c(-c3ccccc3)cc3c2CCCC3=O)cc1,"inconclusive [inhibitor, partial curve]",
O=C(Nc1nccs1)C(=O)c1c[nH]c2ccccc12,,inactive: -18.4%
COc1ccc2nc(SCC(=O)N3CC(=O)Nc4ccccc43)c(C#N)cc2c1,"inconclusive [inhibitor, partial curve, poor fit]",
CCc1ccc(C(=O)CSc2n[nH]c(-c3ccncc3)n2)cc1,active: 11.2 µM,
O=C(O)c1cc(C(=O)O)c(-c2ccccc2)c(C(=O)O)c1,,inactive: -4.64%
Cn1cc(C(F)(F)F)nc1-c1ccc(OCC(O)CNCCOc2ccc(O)c(C(N)=O)c2)cc1 (configuration not stated),"inconclusive [inhibitor, single point]",
COc1ccccc1N1CC(O)=C(c2nc3ccccc3c(=O)[nH]2)C1=N,"inconclusive [inhibitor, partial curve]",
CC(C)c1cc(C(N)=O)c(NC(=O)c2cccc(COc3ccc(Br)cc3)c2)s1,"inconclusive [inhibitor, partial curve]",
CCOc1ccc2[nH]c(=O)c(CN(Cc3ccco3)C(=O)c3cccc(F)c3)cc2c1,"inconclusive [inhibitor, full curve]",
COC(=O)C1=C(C)NC2=C(C(=O)C(C(=O)OC)C(c3ccc(OC)cc3)C2)C1c1ccccn1 (configuration not stated),"inconclusive [inhibitor, single point]",
CCn1c(=O)n(-c2ccc(Cl)cc2)c(=O)c2c3c(sc21)COC(C)(C)C3,,inactive: -7.4%
C=CCOc1ccc(/C(O)=C2\C(=O)C(=O)N(CCOC)C2c2cccnc2)cc1 (configuration not stated),,inactive: -16.6%
COc1ccc([N+](=O)[O-])cc1NS(=O)(=O)c1ccccc1,"inconclusive [inhibitor, partial curve]",
S=c1[nH]cc(-c2ccccc2)n1-c1ccccc1,active: 25.1 µM,
CN1CCc2c(OCC(=O)N3N=C(c4cccs4)CC3c3ccc(F)cc3)cccc2C1=O (configuration not stated),"inconclusive [inhibitor, single point]",
COc1ccc(OC)c(NC(=O)c2nnn(Cc3ccc(Br)cc3F)c2N)c1,"inconclusive [inhibitor, single point]",
O=C(c1ccc(Cn2c(=O)[nH]c3ccccc3c2=O)cc1)N1CCN(c2ccccc2)CC1,"inconclusive [inhibitor, partial curve]",
CC(C)(C)OC(=O)N1CC=C2C(C#N)=C(N)C(C#N)(C#N)C(c3cccs3)C2C1 (configuration not stated),"inconclusive [inhibitor, partial curve]",
O=C(CSc1nnc2ncccn12)N1CCCCCC1,"inconclusive [inhibitor, partial curve]",
CCn1cc(C(=O)O)c(=O)c2cc(F)c(N3CCN(S(=O)(=O)c4ccc(NC(C)=O)cc4)CC3)cc21,"inconclusive [inhibitor, partial curve]",
O=C(NCN1CCN(c2ccccc2F)CC1)c1cccnc1,"inconclusive [inhibitor, partial curve]",
